{"source": "the supplement of paper PMC10320760", "parents": {"B1": {"name": "Ydj1; a variant is named by its letters at X, in order (parent)", "chain": "MVKETKFYDILGVPVTATDVEIKKAYRKCALKYHPDKNPSEEAAEKFKEASAAYEILSDPEKRDIYDQFGEDGLSGAGGAGGFPGGGFGFGDDIFSQFFGAGGAQRPRGPQRGKDIKHEISASLEELYKGRTAKLALNKQILCKECEGRGGKKGAVKKCTSCNGQGIKFVTRQMGPMIQRFQTECDVCHGTGDIIDPKDRCKSCNGKKVENERKILEVHVEPGMKDGQRIVFKGEADQAPDVIPGDVVFIVSERPHKSFKRDGDDLVYEAEIDLLTAIAGGEFALEHVSGDWLKVGIVPGEVIAPGMRKVIEGKGMPIPKYGGYGNLIIKFTIKFPENHFTSEENLKKLEEILPPRIVPAIPKKATVDECVLADFDPAKYNRTRASRGGANYDSDEEEQGGEGVQCXXX"}}, "note": "The data scatter; read single values as rough.", "data": [{"variants_of": "B1", "assay": "enrichment factor, frequency at 37 °C / frequency at 25 °C (thermotolerance selection) (ratio); higher = more growth at 37 °C, higher likelihood of farnesylation", "settings": "with Saccharomyces cerevisiae ydj1Δ (yWS304); selective temperature 37 °C; reference temperature 25 °C", "protocol": "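Pooled library of all 8,000 Ydj1-CXXX C-terminal motif variants (native CASQ replaced by C + three variable residues, one codon per amino acid) expressed from a CEN plasmid in S. cerevisiae ydj1Δ (yWS304). The library was grown in SC-Ura liquid to A600 ~2 (~8 generations) at permissive 25 °C or selective 37 °C. Reads from 8 and 7 replicates were pooled and variants counted by NGS. Enrichment factor = frequency at 37 °C / frequency at 25 °C, with a +1 correction; it reports Ydj1-dependent thermotolerance, used as a read-out of farnesylation by yeast FTase.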", "values": [{"variant": "PDW", "enrichment factor": 0.186}, {"variant": "QDW", "enrichment factor": 0.173}, {"variant": "RDW", "enrichment factor": 0.0894}, {"variant": "ADW", "enrichment factor": 0.232}, {"variant": "SDW", "enrichment factor": 0.195}, {"variant": "TDW", "enrichment factor": 0.214}, {"variant": "VDW", "enrichment factor": 0.135}, {"variant": "WDW", "enrichment factor": 0.779}, {"variant": "YDW", "enrichment factor": 0.197}, {"variant": "DDW", "enrichment factor": 0.1}, {"variant": "EDY", "enrichment factor": 0.139}, {"variant": "FDY", "enrichment factor": 0.195}, {"variant": "GDY", "enrichment factor": 0.139}, {"variant": "HDY", "enrichment factor": 0.214}, {"variant": "IDY", "enrichment factor": 0.191}, {"variant": "KDY", "enrichment factor": 0.139}, {"variant": "LDY", "enrichment factor": 0.189}, {"variant": "MDY", "enrichment factor": 0.174}, {"variant": "NDY", "enrichment factor": 0.254}, {"variant": "CDY", "enrichment factor": 0.327}, {"variant": "PDY", "enrichment factor": 0.184}, {"variant": "QDY", "enrichment factor": 0.146}, {"variant": "RDY", "enrichment factor": 0.118}, {"variant": "SDY", "enrichment factor": 0.157}, {"variant": "ADY", "enrichment factor": 0.181}, {"variant": "TDY", "enrichment factor": 0.137}, {"variant": "VDY", "enrichment factor": 0.161}, {"variant": "WDY", "enrichment factor": 1.57}, {"variant": "YDY", "enrichment factor": 0.211}, {"variant": "DDY", "enrichment factor": 0.179}, {"variant": "EEA", "enrichment factor": 0.273}, {"variant": "FEA", "enrichment factor": 0.393}, {"variant": "GEA", "enrichment factor": 0.101}, {"variant": "HEA", "enrichment factor": 0.514}, {"variant": "IEA", "enrichment factor": 0.804}, {"variant": "KEA", "enrichment factor": 0.442}, {"variant": "LEA", "enrichment factor": 0.758}, {"variant": "MEA", "enrichment factor": 0.517}, {"variant": "NEA", "enrichment factor": 0.212}, {"variant": "CEA", "enrichment factor": 1.37}, {"variant": "PEA", "enrichment factor": 0.399}, {"variant": "QEA", "enrichment factor": 0.377}, {"variant": "REA", "enrichment factor": 0.815}, {"variant": "SEA", "enrichment factor": 0.361}, {"variant": "AEA", "enrichment factor": 1.73}, {"variant": "TEA", "enrichment factor": 0.683}, {"variant": "VEA", "enrichment factor": 1.44}, {"variant": "WEA", "enrichment factor": 1.59}, {"variant": "YEA", "enrichment factor": 0.39}, {"variant": "DEA", "enrichment factor": 0.191}, {"variant": "EEC", "enrichment factor": 0.411}, {"variant": "FEC", "enrichment factor": 1}, {"variant": "GEC", "enrichment factor": 0.2}, {"variant": "HEC", "enrichment factor": 1.26}, {"variant": "IEC", "enrichment factor": 0.962}, {"variant": "KEC", "enrichment factor": 1.33}, {"variant": "LEC", "enrichment factor": 0.954}, {"variant": "MEC", "enrichment factor": 1.23}, {"variant": "NEC", "enrichment factor": 0.876}, {"variant": "CEC", "enrichment factor": 0.642}, {"variant": "PEC", "enrichment factor": 0.816}, {"variant": "QEC", "enrichment factor": 0.939}, {"variant": "REC", "enrichment factor": 1.31}, {"variant": "SEC", "enrichment factor": 0.939}, {"variant": "AEC", "enrichment factor": 1.19}, {"variant": "TEC", "enrichment factor": 1.38}, {"variant": "VEC", "enrichment factor": 1.59}, {"variant": "WEC", "enrichment factor": 1.15}, {"variant": "YEC", "enrichment factor": 0.832}, {"variant": "DEC", "enrichment factor": 0.181}, {"variant": "EED", "enrichment factor": 0.151}, {"variant": "FED", "enrichment factor": 0.187}, {"variant": "GED", "enrichment factor": 0.14}, {"variant": "HED", "enrichment factor": 0.185}, {"variant": "IED", "enrichment factor": 0.0852}, {"variant": "KED", "enrichment factor": 0.158}, {"variant": "LED", "enrichment factor": 0.27}, {"variant": "MED", "enrichment factor": 0.14}, {"variant": "NED", "enrichment factor": 0.151}, {"variant": "CED", "enrichment factor": 0.149}, {"variant": "PED", "enrichment factor": 0.167}, {"variant": "QED", "enrichment factor": 0.174}, {"variant": "RED", "enrichment factor": 0.16}, {"variant": "SED", "enrichment factor": 0.195}, {"variant": "AED", "enrichment factor": 0.194}, {"variant": "TED", "enrichment factor": 0.134}, {"variant": "VED", "enrichment factor": 0.144}, {"variant": "WED", "enrichment factor": 0.255}, {"variant": "YED", "enrichment factor": 0.157}, {"variant": "DED", "enrichment factor": 0.135}, {"variant": "EEE", "enrichment factor": 0.122}, {"variant": "FEE", "enrichment factor": 0.202}, {"variant": "GEE", "enrichment factor": 0.171}, {"variant": "HEE", "enrichment factor": 0.119}, {"variant": "IEE", "enrichment factor": 0.149}, {"variant": "KEE", "enrichment factor": 0.155}, {"variant": "LEE", "enrichment factor": 0.169}, {"variant": "MEE", "enrichment factor": 0.145}, {"variant": "NEE", "enrichment factor": 0.0983}, {"variant": "CEE", "enrichment factor": 0.136}, {"variant": "PEE", "enrichment factor": 0.108}, {"variant": "QEE", "enrichment factor": 0.126}, {"variant": "REE", "enrichment factor": 0.17}, {"variant": "SEE", "enrichment factor": 0.165}, {"variant": "TEE", "enrichment factor": 0.395}, {"variant": "AEE", "enrichment factor": 0.165}, {"variant": "VEE", "enrichment factor": 0.257}, {"variant": "WEE", "enrichment factor": 0.744}, {"variant": "YEE", "enrichment factor": 0.223}, {"variant": "DEE", "enrichment factor": 0.213}, {"variant": "EEF", "enrichment factor": 0.526}, {"variant": "FEF", "enrichment factor": 0.808}, {"variant": "GEF", "enrichment factor": 0.274}, {"variant": "HEF", "enrichment factor": 0.545}, {"variant": "IEF", "enrichment factor": 0.295}, {"variant": "KEF", "enrichment factor": 0.418}, {"variant": "LEF", "enrichment factor": 0.369}, {"variant": "MEF", "enrichment factor": 0.373}, {"variant": "NEF", "enrichment factor": 0.494}, {"variant": "CEF", "enrichment factor": 1.71}, {"variant": "PEF", "enrichment factor": 0.445}, {"variant": "QEF", "enrichment factor": 0.716}, {"variant": "REF", "enrichment factor": 0.695}, {"variant": "SEF", "enrichment factor": 0.436}, {"variant": "TEF", "enrichment factor": 1.08}, {"variant": "AEF", "enrichment factor": 1.49}, {"variant": "VEF", "enrichment factor": 1.17}, {"variant": "WEF", "enrichment factor": 1.65}, {"variant": "YEF", "enrichment factor": 0.611}, {"variant": "DEF", "enrichment factor": 0.154}, {"variant": "EEG", "enrichment factor": 0.143}, {"variant": "FEG", "enrichment factor": 0.67}, {"variant": "GEG", "enrichment factor": 0.243}, {"variant": "HEG", "enrichment factor": 0.341}, {"variant": "IEG", "enrichment factor": 0.123}, {"variant": "KEG", "enrichment factor": 0.197}, {"variant": "LEG", "enrichment factor": 0.13}, {"variant": "MEG", "enrichment factor": 0.225}, {"variant": "NEG", "enrichment factor": 0.12}, {"variant": "CEG", "enrichment factor": 0.229}, {"variant": "PEG", "enrichment factor": 0.219}, {"variant": "QEG", "enrichment factor": 0.199}, {"variant": "REG", "enrichment factor": 0.253}, {"variant": "SEG", "enrichment factor": 0.148}, {"variant": "TEG", "enrichment factor": 0.209}, {"variant": "AEG", "enrichment factor": 0.338}, {"variant": "VEG", "enrichment factor": 0.287}, {"variant": "WEG", "enrichment factor": 1.83}, {"variant": "YEG", "enrichment factor": 0.285}, {"variant": "DEG", "enrichment factor": 0.103}, {"variant": "EEH", "enrichment factor": 0.217}, {"variant": "FEH", "enrichment factor": 0.164}, {"variant": "GEH", "enrichment factor": 0.173}, {"variant": "HEH", "enrichment factor": 0.193}, {"variant": "IEH", "enrichment factor": 0.237}, {"variant": "KEH", "enrichment factor": 0.141}, {"variant": "LEH", "enrichment factor": 0.266}, {"variant": "MEH", "enrichment factor": 0.224}, {"variant": "NEH", "enrichment factor": 0.204}, {"variant": "CEH", "enrichment factor": 1.02}, {"variant": "PEH", "enrichment factor": 0.246}, {"variant": "QEH", "enrichment factor": 0.101}, {"variant": "REH", "enrichment factor": 0.167}, {"variant": "SEH", "enrichment factor": 0.11}, {"variant": "TEH", "enrichment factor": 0.386}, {"variant": "AEH", "enrichment factor": 0.347}, {"variant": "VEH", "enrichment factor": 1.64}]}]}
